Values joined by “and” are separate entries in the source; they are usually repeats but may differ in a detail not shown here. Equal entries are not always repeated. “Also recorded” adds a separate entry of the source.
Legend:
Type in all cases: in vivo
[1] = test system: C57BL mice; assay: Intraperitoneal glucose tolerance test (IPGTT) after single SC injection; settings: for hypoglycemic effect (IPGTT): single SC, 30, 100 or 300 nmol/kg per FIG. 4 legend; for glycemic lowering effect (IPGTT) / decrease in glucose level, duration (IPGTT): single SC 100 or 300 nmol/kg; for glycemic lowering effect (IPGTT): Day 1, 7 and 14; for decrease in glucose level, duration (IPGTT): up to Day 28
Experimental: The effect of the fusion proteins on glucose tolerance was determined in C57BL mice (Beijing Vital River Laboratory Animal Technology Co., Ltd.). Each group (6 mice per group) received a single subcutaneous injection of PBS vehicle control, dulaglutide (TRULICITY® brand) (Vetter Pharma-Fertigung GmbH & Co. […] Intraperitoneal glucose tolerance tests (IPGTT) were performed on Day 1, 7, 14, 21, up to 28 after 6 hours fasting with tail vein blood glucose measurements at 0, 15, 30, 60, and 120 minutes.

[2] = Pharmacokinetic study of fusion proteins in C57BL mice after SC administration (plasma ELISA)
Experimental: The pharmacokinetic profiles in C57BL Mice (males with a body weight of approximately 25 g, Beijing Vital River Laboratory Animal Technology Co., Ltd.) were studied after subcutaneous (SC) administration of 30 nmol/kg of fusion proteins. Blood was drawn from the test subjects (6 mice per group) at various times at 6h, on Day1, 2, 4, 7, 10, and 14 after dosing. Plasma was collected from each sample, and analyzed by i): a nanobody-specific detection antibody (GenScript MonoRab™ Rabbit Anti-Camelid VHH CockTail, Cat #A02016), which will only detect the intact fusion proteins, or ii): an N-terminus specific ELISA which only detect active GLP-1 released (Novus Biologicals, Cat #NBP1-05180H).
For initial screening, all 9 SP01 nanobodies were fused to the N-terminus of SP01 via a 3×(G4S) linker without Xa factor sequences, and then further fused to the N-terminus of the hIgG4 Fc fragment via a 3×(G4S) linker. […]
Using a similar method mentioned in Example 5, the pharmacokinetic studies of the fusion protein P95 was carried out in C57BL mice with 100 and 300 nmol/kg dosing. The concentration of the intact fusion protein P95 in the collected plasma samples was detected by ELISA, and the results were shown in FIG. 2A and FIG. 2B.

[3] = test system: DIO mice; assay: 28-day study in DIO mice: body weight, blood glucose, food intake; settings: for weight loss: after 28 days; for blood glucose: chronic dosing, blood glucose after 6 hours fasting, twice weekly (FIG. 7A)
Experimental: To further characterize and understand the efficacy of the fusion proteins, body weight and metabolic parameters were measured throughout a 28-day study in DIO mice (Beijing Vital River Laboratory Animal Technology Co., Ltd.).
The effects of all fusion proteins on blood glucose reduction and food intake were determined in the DIO mice described above (FIG. 7A and FIG. 7B). All mice are bled after fasting for 6 hours to measure blood glucose twice weekly.

B1: P46: SEQ ID NO: 29-27: SP01-amG3, SP01 fused to the N-terminus of amG3 light chain (protein)
light: HGEGTFTSDVSSYLEEQAAKEFIAWLVKGGGGGGGSGGGGSGGGGSDVVMTQTPLSLPVSLGDQASISCRSSQSLVHSNGDTYLHWYLQKPGQSPKLLIYKVSNRFSGVPDRFSGSGSGTDFTLKISRVEAADLGVYFCSQSTHVPPFTFGGGTKLEIKRTVAAPSVFIFPPSDEQLKSGTASVVCLLNNFYPREAKVQWKVDNALQSGNSQESVTEQDSKDSTYSLSSTLTLSKADYEKHKVYACEVTHQGLSSPVTKSFNRGEC
heavy: QVQLQQPGAELVKPGASVKLSCRASGYTFTSNWMHWVKQRPRQGLEWIGEINPSNGRSNYNEKFKTKATLTVDKSSSTAYMQLSSLTSEDSAVYYCARFYYGTSWFAYWGQGTLVAVSAASTKGPSVFPLAPCSRSTSESTAALGCLVKDYFPEPVTVSWNSGALTSGVHTFPAVLQSSGLYSLSSVVTVPSSSLGTKTYTCNVDHKPSNTKVDKRV[human IgG4 Fc with S228P F234A L235A (EU numbers) not given here]
modifications: heavy chain of amG3 not cited
For B1, the “hypoglycemic effect (IPGTT)” value ([1]; Day 1, 5) was “showed hypoglycemic effect” and the “hypoglycemic effect (IPGTT)” value ([1]; Day 10) was “completely lost its effect”.

B2: P99: SEQ ID NO: 23: P67-RKR-SP01-hIgG4Fc (protein)
chain: QVQLVESGGGLVQPGGSLRLSCAASGSVFSRNFMGWYRQAPGKQRELVAYITVDGGTRYADSVKGRFTISRDNAKNTVYLQMNSLKPEDTAVYYCNRAGTTPYAWGQGTLVTVSSGGGGSGGGGSGGGGSRKRHGEGTFTSDVSSYLEEQAAKEFIAWLVKGGGGGGGSGGGGSGGGGSA[human IgG4 Fc with S228P F234A L235A (EU numbers) not given here]
For B2, the “release of active GLP1 fusion protein in plasma” value ([2]; SC 100 or 300 nmol/kg (FIG. 1G, 1H)) was “rapidly release the active GLP1 fusion protein”, the “glycemic lowering effect (IPGTT)” value [1] was “very stable glycemic lowering effects” and the “decrease in glucose level, duration (IPGTT)” value [1] was “significant decrease in glucose level for up to 28 days”. The weight loss ([3]; 100 nmol/kg once weekly) was 20.7%, the cumulative food intake ([3]; 100 nmol/kg once weekly, measured every two days (FIG. 7B)) was “greatest reduction in cumulative food intake; also recorded: significant reduction of food intake” and the blood glucose [3] was “significant blood glucose control”.

B3: P93: SEQ ID NO: 22: P67-RGER-SP01-hIgG4Fc (protein)
chain: QVQLVESGGGLVQPGGSLRLSCAASGSVFSRNFMGWYRQAPGKQRELVAYITVDGGTRYADSVKGRFTISRDNAKNTVYLQMNSLKPEDTAVYYCNRAGTTPYAWGQGTLVTVSSGGGGSGGGGSGGGGSRGERHGEGTFTSDVSSYLEEQAAKEFIAWLVKGGGGGGGSGGGGSGGGGSA[human IgG4 Fc with S228P F234A L235A (EU numbers) not given here]
In the case of B3, the “constant level of released active GLP1 fusion protein in plasma” value ([2]; SC 100 or 300 nmol/kg, N-terminus specific ELISA (FIG. 1E, 1F)) is reported as “about 2 ng/ml”, the “glycemic lowering effect (IPGTT)” value [1] is reported as “very stable glycemic lowering effects” and the “decrease in glucose level, duration (IPGTT)” value [1] is reported as “significant decrease in glucose level for up to 28 days”. The weight loss ([3]; 100 nmol/kg once weekly) was 12.2% and 12% and the blood glucose [3] was “significant blood glucose control”.
